# Results reported in the supplement of paper PMC8728848.
# The other results are listed elsewhere or left out.
# Legend:
# Test in all cases: glycan array binding signal (z-score within array); higher = stronger binding
# Details in all cases: glycan notation: IUPAC condensed, linker removed
# [1] = molecular target: Fuc(a1-2)Gal6S(b1-3)GlcNAc
# Procedure, shortened: (§1)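 Arrays were curated from the Consortium for Functional Glycomics database, 3228 in total, and kept only where the protein sequence was available. Binding is expressed as a within-array Z-score. This score was averaged across arrays of the same protein sequence at different concentrations or buffers and across linkers, and negative values can be read as non-binding.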
# [2] = molecular target: Fuc(a1-2)Gal6S(b1-3)GlcNAc6S
# Procedure, shortened: as §1
# Fuc(a1-2)Gal6S(b1-4)Glc = molecular target: Fuc(a1-2)Gal6S(b1-4)Glc
# Procedure, shortened: as §1
# [3] = molecular target: Fuc(a1-2)Gal6S(b1-4)Glc6S
# Procedure, shortened: as §1
# Fuc(a1-2)[Gal(a1-3)]Gal = molecular target: Fuc(a1-2)[Gal(a1-3)]Gal
# Procedure, shortened: as §1
# [4] = molecular target: Fuc(a1-2)[Gal(a1-3)]Gal(b1-3)GalNAc
# Procedure, shortened: as §1
# [5] = molecular target: Fuc(a1-2)[Gal(a1-3)]Gal(b1-3)GalNAc(b1-3)Gal(a1-4)Gal(b1-4)Glc
# Procedure, shortened: as §1
# [6] = molecular target: Fuc(a1-2)[Gal(a1-3)]Gal(b1-3)GlcNAc
# Procedure, shortened: as §1
# [7] = molecular target: Fuc(a1-2)[Gal(a1-3)]Gal(b1-3)GlcNAc(b1-2)Man(a1-3)[Fuc(a1-2)[Gal(a1-3)]Gal(b1-3)GlcNAc(b1-2)Man(a1-6)]Man(b1-4)GlcNAc(b1-4)GlcNAc
# Procedure, shortened: as §1
# [8] = molecular target: Fuc(a1-2)[Gal(a1-3)]Gal(b1-3)GlcNAc(b1-2)Man(a1-3)[Fuc(a1-2)[Gal(a1-3)]Gal(b1-3)GlcNAc(b1-2)Man(a1-6)]Man(b1-4)GlcNAc(b1-4)[Fuc(a1-6)]GlcNAc
# Procedure, shortened: as §1
# [9] = molecular target: Fuc(a1-2)[Gal(a1-3)]Gal(b1-3)GlcNAc(b1-3)GalNAc
# Procedure, shortened: as §1
# [10] = molecular target: Fuc(a1-2)[Gal(a1-3)]Gal(b1-3)GlcNAc(b1-6)GalNAc
# Procedure, shortened: as §1
# [11] = molecular target: Fuc(a1-2)[Gal(a1-3)]Gal(b1-4)Glc
# Procedure, shortened: as §1
# [12] = molecular target: Fuc(a1-2)[Gal(a1-3)]Gal(b1-4)GlcNAc
# Procedure, shortened: as §1
# [13] = molecular target: Fuc(a1-2)[Gal(a1-3)]Gal(b1-4)GlcNAc(b1-2)Man
# Procedure, shortened: as §1
# [14] = molecular target: Fuc(a1-2)[Gal(a1-3)]Gal(b1-4)GlcNAc(b1-2)Man(a1-3)[Fuc(a1-2)[Gal(a1-3)]Gal(b1-4)GlcNAc(b1-2)Man(a1-6)]Man(b1-4)GlcNAc(b1-4)GlcNAc
# Procedure, shortened: as §1
# [15] = molecular target: Fuc(a1-2)[Gal(a1-3)]Gal(b1-4)GlcNAc(b1-2)Man(a1-3)[Fuc(a1-2)[Gal(a1-3)]Gal(b1-4)GlcNAc(b1-2)Man(a1-6)]Man(b1-4)GlcNAc(b1-4)[Fuc(a1-6)]GlcNAc
# Procedure, shortened: as §1
# [16] = molecular target: Fuc(a1-2)[Gal(a1-3)]Gal(b1-4)GlcNAc(b1-3)GalNAc
# Procedure, shortened: as §1
# [17] = molecular target: Fuc(a1-2)[Gal(a1-3)]Gal(b1-4)GlcNAc(b1-3)[Fuc(a1-2)[Gal(a1-3)]Gal(b1-4)GlcNAc(b1-6)]GalNAc
# Procedure, shortened: as §1
# [18] = molecular target: Fuc(a1-2)[Gal(a1-3)]Gal(b1-4)GlcNAc(b1-6)GalNAc
# Procedure, shortened: as §1
# [19] = molecular target: Fuc(a1-2)[Gal(a1-3)]Gal(b1-4)[Fuc(a1-3)]Glc
# Procedure, shortened: as §1
# [20] = molecular target: Fuc(a1-2)[Gal(a1-3)]Gal(b1-4)[Fuc(a1-3)]GlcNAc
# Procedure, shortened: as §1
# [21] = molecular target: Fuc(a1-2)[Gal(a1-3)]Gal(b1-4)[Fuc(a1-3)]GlcNAc(b1-3)GalNAc
# Procedure, shortened: as §1
# [22] = molecular target: Fuc(a1-2)[Gal(a1-4)]Gal(b1-4)GlcNAc
# Procedure, shortened: as §1
# [23] = molecular target: Fuc(a1-2)[GalNAc(a1-3)]Gal
# Procedure, shortened: as §1
# [24] = molecular target: Fuc(a1-2)[GalNAc(a1-3)]Gal(b1-3)GalNAc(a1-3)[Fuc(a1-2)]Gal(b1-4)GlcNAc
# Procedure, shortened: as §1
# [25] = molecular target: Fuc(a1-2)[GalNAc(a1-3)]Gal(b1-3)GalNAc(b1-3)Gal(a1-4)Gal(b1-4)Glc
# Procedure, shortened: as §1
# [26] = molecular target: Fuc(a1-2)[GalNAc(a1-3)]Gal(b1-3)GlcNAc
# Procedure, shortened: as §1
# [27] = molecular target: Fuc(a1-2)[GalNAc(a1-3)]Gal(b1-3)GlcNAc(b1-2)Man(a1-3)[Fuc(a1-2)[GalNAc(a1-3)]Gal(b1-3)GlcNAc(b1-2)Man(a1-6)]Man(b1-4)GlcNAc(b1-4)GlcNAc
# Procedure, shortened: as §1
# [28] = molecular target: Fuc(a1-2)[GalNAc(a1-3)]Gal(b1-3)GlcNAc(b1-2)Man(a1-3)[Fuc(a1-2)[GalNAc(a1-3)]Gal(b1-3)GlcNAc(b1-2)Man(a1-6)]Man(b1-4)GlcNAc(b1-4)[Fuc(a1-6)]GlcNAc
# Procedure, shortened: as §1
# [29] = molecular target: Fuc(a1-2)[GalNAc(a1-3)]Gal(b1-3)GlcNAc(b1-3)GalNAc
# Procedure, shortened: as §1
# [30] = molecular target: Fuc(a1-2)[GalNAc(a1-3)]Gal(b1-3)GlcNAc(b1-6)GalNAc
# Procedure, shortened: as §1
# [31] = molecular target: Fuc(a1-2)[GalNAc(a1-3)]Gal(b1-4)Glc
# Procedure, shortened: as §1
# [32] = molecular target: Fuc(a1-2)[GalNAc(a1-3)]Gal(b1-4)GlcNAc
# Procedure, shortened: as §1
# [33] = molecular target: Fuc(a1-2)[GalNAc(a1-3)]Gal(b1-4)GlcNAc(b1-2)Man
# Procedure, shortened: as §1
# [34] = molecular target: Fuc(a1-2)[GalNAc(a1-3)]Gal(b1-4)GlcNAc(b1-2)Man(a1-3)[Fuc(a1-2)[GalNAc(a1-3)]Gal(b1-4)GlcNAc(b1-2)Man(a1-6)]Man(b1-4)GlcNAc(b1-4)GlcNAc
# Procedure, shortened: as §1
# [35] = molecular target: Fuc(a1-2)[GalNAc(a1-3)]Gal(b1-4)GlcNAc(b1-2)Man(a1-3)[Fuc(a1-2)[GalNAc(a1-3)]Gal(b1-4)GlcNAc(b1-2)Man(a1-6)]Man(b1-4)GlcNAc(b1-4)[Fuc(a1-6)]GlcNAc
# Procedure, shortened: as §1
# [36] = molecular target: Fuc(a1-2)[GalNAc(a1-3)]Gal(b1-4)GlcNAc(b1-3)Gal(b1-4)GlcNAc
# Procedure, shortened: as §1
# [37] = molecular target: Fuc(a1-2)[GalNAc(a1-3)]Gal(b1-4)GlcNAc(b1-3)Gal(b1-4)GlcNAc(b1-3)Gal(b1-4)GlcNAc
# Procedure, shortened: as §1
# [38] = molecular target: Fuc(a1-2)[GalNAc(a1-3)]Gal(b1-4)GlcNAc(b1-3)GalNAc
# Procedure, shortened: as §1
# [39] = molecular target: Fuc(a1-2)[GalNAc(a1-3)]Gal(b1-4)GlcNAc(b1-3)[Fuc(a1-2)[GalNAc(a1-3)]Gal(b1-4)GlcNAc(b1-6)]GalNAc
# Procedure, shortened: as §1
# [40] = molecular target: Fuc(a1-2)[GalNAc(a1-3)]Gal(b1-4)GlcNAc(b1-6)GalNAc
# Procedure, shortened: as §1
# [41] = molecular target: Fuc(a1-2)[GalNAc(a1-3)]Gal(b1-4)[Fuc(a1-3)]GlcNAc
# Procedure, shortened: as §1
# [42] = molecular target: Fuc(a1-2)[GalNAc(a1-3)]Gal(b1-4)[Fuc(a1-3)]GlcNAc(b1-3)GalNAc
# Procedure, shortened: as §1
# [43] = molecular target: Fuc(a1-2)[GalNAc(a1-4)]Gal(b1-4)GlcNAc
# Procedure, shortened: as §1
binder,measurement,setting,value
PkBDPgamma (Plasmodium knowlesi) (protein) SAINQIFLQNNVMDKCNDKRKRGERDWDCPTEKDVCIPDRRYQLCMMEITNLVDTDTHFHSDIIFRKSYSRRRLIYDVGGRGDLLLKKYNNVYSEDLCKDIKWSLQDFGDIIMGTDMEGIGYSLVVQNNLRSIFGTGTSAELDRKKWWNDHKKDIWKAMILSVKEKNRYSAWNCKEDVQIKVEPQIYRWIREWGRDYMSEFREQRRKLNEKCEDKLYYSTMLICTLPPCNNACKSYDEWITGKKKQWDVLSTKFSSVKKAQKIETENIARAYDILKQELNGFNEVTFENEINKRDKLYNYFCVCIVQEARKNTQENVKNVGSGVESKAPSSNPINEAVKSSSGEGKVQEDSAHRSVNEGEGKSSTNEADPGSQPGAAASGGGSGGGTGGGVDLAPQMLRELQETNAALQDVRELLRQQVKEITFLKNTVMECDACGGPLDRNLPPLAPLGPTGGWSHPQFEK,glycan array binding signal (z-score),[1],0.072
same,glycan array binding signal (z-score),[2],0.392
same,glycan array binding signal (z-score),Fuc(a1-2)Gal6S(b1-4)Glc,-0.08
same,glycan array binding signal (z-score),[3],0.074
same,glycan array binding signal (z-score),Fuc(a1-2)[Gal(a1-3)]Gal,-0.271
same,glycan array binding signal (z-score),[4],-0.315
same,glycan array binding signal (z-score),[5],0.02
same,glycan array binding signal (z-score),[6],0.248
same,glycan array binding signal (z-score),[7],-0.122
same,glycan array binding signal (z-score),[8],-0.307
same,glycan array binding signal (z-score),[9],-0.705
same,glycan array binding signal (z-score),[10],0.294
same,glycan array binding signal (z-score),[11],-0.178
same,glycan array binding signal (z-score),[12],-0.12
same,glycan array binding signal (z-score),[13],-0.629
same,glycan array binding signal (z-score),[14],0.37
same,glycan array binding signal (z-score),[15],-0.045
same,glycan array binding signal (z-score),[16],-0.37
same,glycan array binding signal (z-score),[17],0.056
same,glycan array binding signal (z-score),[18],0.292
same,glycan array binding signal (z-score),[19],0.263
same,glycan array binding signal (z-score),[20],0.066
same,glycan array binding signal (z-score),[21],-0.566
same,glycan array binding signal (z-score),[22],0.52
same,glycan array binding signal (z-score),[23],-0.098
same,glycan array binding signal (z-score),[24],-0.349
same,glycan array binding signal (z-score),[25],0.176
same,glycan array binding signal (z-score),[26],0.388
same,glycan array binding signal (z-score),[27],0.186
same,glycan array binding signal (z-score),[28],0.314
same,glycan array binding signal (z-score),[29],0.298
same,glycan array binding signal (z-score),[30],-0.403
same,glycan array binding signal (z-score),[31],-0.206
same,glycan array binding signal (z-score),[32],0.177
same,glycan array binding signal (z-score),[33],-0.393
same,glycan array binding signal (z-score),[34],0.106
same,glycan array binding signal (z-score),[35],0.332
same,glycan array binding signal (z-score),[36],-0.454
same,glycan array binding signal (z-score),[37],-0.088
same,glycan array binding signal (z-score),[38],-0.088
same,glycan array binding signal (z-score),[39],-0.092
same,glycan array binding signal (z-score),[40],-0.264
same,glycan array binding signal (z-score),[41],-0.254
same,glycan array binding signal (z-score),[42],-0.356
same,glycan array binding signal (z-score),[43],0.172
